# Laboratory results: a compilation of properties of binary mixtures (doi:10.1016/j.cjche.2018.02.001)
# Some of these densities may be calculated back from excess volumes.
# Experiment: xn = mol fraction of the nth substance listed
# Details: 100 kPa
smiles,measurement,setting,value
O=S(=O)(O)O + CCCCCCCC[n+]1ccn(C)c1.O=S(=O)([O-])C(F)(F)F,mass density,"303.2 K, x2 = 0",1826 kg/m3
same,mass density,"313.2 K, x2 = 0",1814 kg/m3
CCCC[n+]1ccn(C)c1.O=S(=O)([O-])C(F)(F)F + O=S(=O)(O)O,mass density,"298.2 K, x1 = 1",1299.2 kg/m3
same,mass density,"303.2 K, x1 = 1",1295.7 kg/m3
same,mass density,"308.2 K, x1 = 1",1291.3 kg/m3
same,mass density,"313.2 K, x1 = 1",1286.9 kg/m3
CCCCCC[n+]1ccn(C)c1.O=S(=O)([O-])C(F)(F)F + O=S(=O)(O)O,mass density,"293.2 K, x1 = 0.0032",1825 kg/m3
same,mass density,"293.2 K, x1 = 0.0095",1808 kg/m3
same,mass density,"293.2 K, x1 = 0.0193",1783 kg/m3
same,mass density,"293.2 K, x1 = 0.0333",1748 kg/m3
same,mass density,"293.2 K, x1 = 0.0999",1616 kg/m3
same,mass density,"293.2 K, x1 = 0.4001",1363.5 kg/m3
same,mass density,"293.2 K, x1 = 0.5",1332.4 kg/m3
same,mass density,"293.2 K, x1 = 0.5999",1308.1 kg/m3
same,mass density,"293.2 K, x1 = 0.8001",1265.1 kg/m3
same,mass density,"293.2 K, x1 = 0.9001",1247.5 kg/m3
same,mass density,"298.2 K, x1 = 0.0095",1804 kg/m3
same,mass density,"298.2 K, x1 = 0.0333",1744 kg/m3
same,mass density,"298.2 K, x1 = 0.0999",1612 kg/m3
same,mass density,"298.2 K, x1 = 0.2004",1482.8 kg/m3
same,mass density,"298.2 K, x1 = 0.3",1406.6 kg/m3
same,mass density,"298.2 K, x1 = 0.4001",1359.8 kg/m3
same,mass density,"298.2 K, x1 = 0.5",1328.7 kg/m3
same,mass density,"298.2 K, x1 = 0.8001",1261.5 kg/m3
same,mass density,"303.2 K, x1 = 0.0095",1800 kg/m3
same,mass density,"303.2 K, x1 = 0.0193",1774 kg/m3
same,mass density,"303.2 K, x1 = 0.0333",1740 kg/m3
same,mass density,"303.2 K, x1 = 0.0999",1608 kg/m3
same,mass density,"303.2 K, x1 = 0.4001",1355.9 kg/m3
same,mass density,"303.2 K, x1 = 0.5",1324.9 kg/m3
same,mass density,"303.2 K, x1 = 0.5999",1300.7 kg/m3
same,mass density,"303.2 K, x1 = 0.8001",1257.8 kg/m3
same,mass density,"303.2 K, x1 = 0.9001",1240.4 kg/m3
same,mass density,"303.2 K, x1 = 1",1231.6 kg/m3
same,mass density,"308.2 K, x1 = 0.0032",1812 kg/m3
same,mass density,"308.2 K, x1 = 0.0095",1795 kg/m3
same,mass density,"308.2 K, x1 = 0.0193",1769 kg/m3
same,mass density,"308.2 K, x1 = 0.0333",1735 kg/m3
same,mass density,"308.2 K, x1 = 0.0999",1604 kg/m3
same,mass density,"308.2 K, x1 = 0.2004",1474.9 kg/m3
same,mass density,"308.2 K, x1 = 0.3",1399 kg/m3
same,mass density,"308.2 K, x1 = 0.4001",1352.2 kg/m3
same,mass density,"308.2 K, x1 = 0.5",1321.2 kg/m3
same,mass density,"308.2 K, x1 = 0.5999",1297 kg/m3
same,mass density,"308.2 K, x1 = 0.8001",1254.1 kg/m3
same,mass density,"308.2 K, x1 = 0.9001",1236.6 kg/m3
same,mass density,"308.2 K, x1 = 1",1227.6 kg/m3
same,mass density,"313.2 K, x1 = 0.0032",1806 kg/m3
same,mass density,"313.2 K, x1 = 0.0095",1789 kg/m3
same,mass density,"313.2 K, x1 = 0.0193",1763 kg/m3
same,mass density,"313.2 K, x1 = 0.0333",1730 kg/m3
same,mass density,"313.2 K, x1 = 0.0999",1599 kg/m3
same,mass density,"313.2 K, x1 = 0.2004",1470.7 kg/m3
same,mass density,"313.2 K, x1 = 0.3",1395 kg/m3
same,mass density,"313.2 K, x1 = 0.4001",1348.3 kg/m3
same,mass density,"313.2 K, x1 = 0.5999",1292.7 kg/m3
same,mass density,"313.2 K, x1 = 0.7",1270.5 kg/m3
same,mass density,"313.2 K, x1 = 0.8001",1249.5 kg/m3
same,mass density,"313.2 K, x1 = 1",1222.7 kg/m3
O=S(=O)(O)O + CCCC[n+]1ccn(C)c1.O=S(=O)([O-])C(F)(F)F,mass density,"293.2 K, x2 = 0",1834 kg/m3
same,mass density,"293.2 K, x2 = 0.0036",1824 kg/m3
same,mass density,"293.2 K, x2 = 0.0104",1810 kg/m3
same,mass density,"293.2 K, x2 = 0.0364",1755 kg/m3
same,mass density,"293.2 K, x2 = 0.0532",1717 kg/m3
same,mass density,"293.2 K, x2 = 0.1",1646 kg/m3
same,mass density,"293.2 K, x2 = 0.2",1538.4 kg/m3
same,mass density,"293.2 K, x2 = 0.3",1469 kg/m3
same,mass density,"293.2 K, x2 = 0.4",1422.9 kg/m3
same,mass density,"293.2 K, x2 = 0.5",1389.4 kg/m3
same,mass density,"293.2 K, x2 = 0.6",1365 kg/m3
same,mass density,"293.2 K, x2 = 0.7",1344.5 kg/m3
same,mass density,"293.2 K, x2 = 0.8",1327.8 kg/m3
same,mass density,"298.2 K, x2 = 0",1830 kg/m3
same,mass density,"298.2 K, x2 = 0.0104",1805 kg/m3
same,mass density,"298.2 K, x2 = 0.0176",1788 kg/m3
same,mass density,"298.2 K, x2 = 0.0532",1712 kg/m3
same,mass density,"298.2 K, x2 = 0.1",1641 kg/m3
same,mass density,"298.2 K, x2 = 0.2",1533.7 kg/m3
same,mass density,"298.2 K, x2 = 0.4",1418.6 kg/m3
same,mass density,"298.2 K, x2 = 0.5",1385.3 kg/m3
same,mass density,"298.2 K, x2 = 0.6",1361 kg/m3
same,mass density,"298.2 K, x2 = 0.7",1340.5 kg/m3
same,mass density,"298.2 K, x2 = 0.8",1323.8 kg/m3
same,mass density,"303.2 K, x2 = 0.0036",1817 kg/m3
same,mass density,"303.2 K, x2 = 0.0104",1800 kg/m3
same,mass density,"303.2 K, x2 = 0.1",1636 kg/m3
same,mass density,"303.2 K, x2 = 0.3",1460.2 kg/m3
same,mass density,"303.2 K, x2 = 0.4",1414.4 kg/m3
same,mass density,"303.2 K, x2 = 0.6",1357 kg/m3
same,mass density,"303.2 K, x2 = 0.7",1336.5 kg/m3
same,mass density,"303.2 K, x2 = 0.8",1319.8 kg/m3
same,mass density,"308.2 K, x2 = 0",1821 kg/m3
same,mass density,"308.2 K, x2 = 0.0036",1812 kg/m3
same,mass density,"308.2 K, x2 = 0.0364",1741 kg/m3
same,mass density,"308.2 K, x2 = 0.0532",1704 kg/m3
same,mass density,"308.2 K, x2 = 0.4",1410.1 kg/m3
same,mass density,"308.2 K, x2 = 0.5",1377.1 kg/m3
same,mass density,"308.2 K, x2 = 0.6",1352.9 kg/m3
same,mass density,"308.2 K, x2 = 0.7",1332.4 kg/m3
same,mass density,"308.2 K, x2 = 0.8",1315.8 kg/m3
same,mass density,"308.2 K, x2 = 0.9",1302.3 kg/m3
same,mass density,"313.2 K, x2 = 0.0036",1806 kg/m3
same,mass density,"313.2 K, x2 = 0.0176",1777 kg/m3
same,mass density,"313.2 K, x2 = 0.0364",1739 kg/m3
same,mass density,"313.2 K, x2 = 0.2",1519.8 kg/m3
same,mass density,"313.2 K, x2 = 0.3",1451.3 kg/m3
same,mass density,"313.2 K, x2 = 0.6",1348.9 kg/m3
same,mass density,"313.2 K, x2 = 0.7",1328.4 kg/m3
same,mass density,"313.2 K, x2 = 0.8",1311.9 kg/m3
CCCCCCCC[n+]1ccn(C)c1.O=S(=O)([O-])C(F)(F)F + O=S(=O)(O)O,mass density,"293.2 K, x1 = 0.0029",1825 kg/m3
same,mass density,"293.2 K, x1 = 0.0086",1806 kg/m3
same,mass density,"293.2 K, x1 = 0.0147",1787 kg/m3
same,mass density,"293.2 K, x1 = 0.0305",1741 kg/m3
same,mass density,"293.2 K, x1 = 0.1001",1581 kg/m3
same,mass density,"293.2 K, x1 = 0.2",1439.9 kg/m3
same,mass density,"293.2 K, x1 = 0.3001",1360.2 kg/m3
same,mass density,"293.2 K, x1 = 0.4001",1314 kg/m3
same,mass density,"293.2 K, x1 = 0.4999",1284.2 kg/m3
same,mass density,"293.2 K, x1 = 0.5999",1260.2 kg/m3
same,mass density,"293.2 K, x1 = 0.7",1237.2 kg/m3
same,mass density,"293.2 K, x1 = 0.8001",1214.8 kg/m3
same,mass density,"293.2 K, x1 = 0.8974",1197.2 kg/m3
same,mass density,"298.2 K, x1 = 0.0029",1821 kg/m3
same,mass density,"298.2 K, x1 = 0.0086",1802 kg/m3
same,mass density,"298.2 K, x1 = 0.0147",1783 kg/m3
same,mass density,"298.2 K, x1 = 0.0305",1737 kg/m3
same,mass density,"298.2 K, x1 = 0.1001",1577.2 kg/m3
same,mass density,"298.2 K, x1 = 0.2",1436.1 kg/m3
same,mass density,"298.2 K, x1 = 0.4999",1280.7 kg/m3
same,mass density,"298.2 K, x1 = 0.5999",1256.8 kg/m3
same,mass density,"298.2 K, x1 = 0.8001",1211.3 kg/m3
same,mass density,"298.2 K, x1 = 0.8974",1193.7 kg/m3
same,mass density,"303.2 K, x1 = 0.0029",1816 kg/m3
same,mass density,"303.2 K, x1 = 0.0086",1798 kg/m3
same,mass density,"303.2 K, x1 = 0.0147",1779 kg/m3
same,mass density,"303.2 K, x1 = 0.0305",1732 kg/m3
same,mass density,"303.2 K, x1 = 0.2",1432.1 kg/m3
same,mass density,"303.2 K, x1 = 0.3001",1352.8 kg/m3
same,mass density,"303.2 K, x1 = 0.4001",1306.9 kg/m3
same,mass density,"303.2 K, x1 = 0.4999",1277.3 kg/m3
same,mass density,"303.2 K, x1 = 0.5999",1253.5 kg/m3
same,mass density,"303.2 K, x1 = 0.8001",1208 kg/m3
same,mass density,"303.2 K, x1 = 0.8974",1190.5 kg/m3
same,mass density,"303.2 K, x1 = 1",1184.7 kg/m3
same,mass density,"308.2 K, x1 = 0.0029",1811 kg/m3
same,mass density,"308.2 K, x1 = 0.0086",1793 kg/m3
same,mass density,"308.2 K, x1 = 0.0305",1728 kg/m3
same,mass density,"308.2 K, x1 = 0.1001",1568.7 kg/m3
same,mass density,"308.2 K, x1 = 0.2",1428.3 kg/m3
same,mass density,"308.2 K, x1 = 0.3001",1349.1 kg/m3
same,mass density,"308.2 K, x1 = 0.4999",1273.6 kg/m3
same,mass density,"308.2 K, x1 = 0.8001",1204.5 kg/m3
same,mass density,"308.2 K, x1 = 0.8974",1186.9 kg/m3
same,mass density,"313.2 K, x1 = 0.0029",1805 kg/m3
same,mass density,"313.2 K, x1 = 0.0086",1787 kg/m3
same,mass density,"313.2 K, x1 = 0.0147",1768 kg/m3
same,mass density,"313.2 K, x1 = 0.0305",1722 kg/m3
same,mass density,"313.2 K, x1 = 0.1001",1564 kg/m3
same,mass density,"313.2 K, x1 = 0.2",1424.1 kg/m3
same,mass density,"313.2 K, x1 = 0.3001",1345 kg/m3
same,mass density,"313.2 K, x1 = 0.4001",1299.1 kg/m3
same,mass density,"313.2 K, x1 = 0.4999",1269.4 kg/m3
same,mass density,"313.2 K, x1 = 0.7",1222.8 kg/m3
same,mass density,"313.2 K, x1 = 0.8001",1200.6 kg/m3
same,mass density,"313.2 K, x1 = 0.8974",1183.4 kg/m3
same,mass density,"313.2 K, x1 = 1",1177.6 kg/m3
O=S(=O)(O)O + CCCCCC[n+]1ccn(C)c1.O=S(=O)([O-])C(F)(F)F,mass density,"293.2 K, x2 = 0",1834 kg/m3
same,mass density,"298.2 K, x2 = 0",1830 kg/m3
same,mass density,"303.2 K, x2 = 0",1826 kg/m3
same,mass density,"308.2 K, x2 = 0",1821 kg/m3
same,mass density,"313.2 K, x2 = 0",1814 kg/m3
